Measurements taken from PubChem BioAssay AID1461 (National Center for Advancing Translational Sciences (NCATS), 2008).
About 2,300 (1%) of roughly 220,000 compounds were called active. The inconclusive results got no clear call from the source; some entries with a clear call stand among them for comparison. Calls come from the whole dose curve; as a rule, active = well fitted inhibition curve with a large enough effect; inconclusive = small, poorly fitted or top-dose-only effect, or effect the other way; inactive = no such curve, though single readings can be large or run the other way. No potency is given beside an inconclusive call; the fits are too rough.

Target: Neuropeptide S receptor (Homo sapiens) (UniProt Q6W5P4)
Assay: qHTS Assay for Antagonists of the Neuropeptide S Receptor: cAMP Signal Transduction; note: nearly all actives have a fitted effect of over 50% in size
Settings: CHO-NPSR cells, cAMP TR-FRET, antagonist mode; series mostly up to 38.3 µM
Text: NIH Chemical Genomics Center [NCGC] NIH Molecular Libraries Probe Production centers Network [MLPCN] MLPCN Grant: X01-DA026210-01 Assay Submitter (PI): Heilig, Markus Alexander NCGC Assay Overview: Neuropeptide S receptor (NPSR), previously known as GPR154, is a recently de-orphanized G protein coupled receptor. Its endogenous ligand is the 20 amino acids peptide Neuropeptide S (NPS). […] NPS and its receptor are found in various tissues. Specifically they are highly expressed in brain areas that have been implicated in modulation of arousal, stress and anxiety. Central administration of NPS in mice produces an unusual profile of activity by inducing wakefulness and arousal, while at the same time suppressing anxiety. Therefore, NPSR may represent a novel drug target for the treatment of sleep and anxiety disorders. To identify NPSR antagonists, we developed a cell-based cAMP assay. NPS can stimulate the production of cAMP in Chinese hamster ovary cells stably expressing NPS receptor. This change in intracellular cAMP level can be detected by a homogeneous LANCE cAMP assay based on the TR-FRET (time resolved fluorescence resonance energy transfer) between a europium-labeled cAMP tracer complex and a cAMP-specific antibody labeled with Alexa Fluor 647. The europium-labeled cAMP tracer complex is formed by the tight interaction between Biotin-cAMP (b-cAMP) and streptavidin labeled with Europium-W8044 chelate (Eu-SA). Light pulse at 320 nm excites the europium of the cAMP tracer and the energy emitted is transferred to the Alexa molecule bound to the cAMP antibody, generating a TR-FRET signal at 665 nm. Residual energy from the europium will produce a light at 620 nm. The native unlabeled cAMP from cell lysates competes with the europium-cAMP tracer for antibody binding and reversely reduces the emission signal of Alexa by interrupting FRET between the two labeled molecules. Both emission signals from the FRET donor (620 nm) and the acceptor (665 nm) can be detected by a plate reader in the TRF mode. Expression of result in fluorescence ratio (665 nm/620 nm) helps to normalize differences due to cell density and reagent dispensing. This assay was successfully optimized to a 1536-well plate format.
NCGC Assay Protocol Summary: A Chinese hamster ovary (CHO) cell line stably expressing the NPS receptor (CHO-NPSR) was obtained from Dr. Heilig lab at NIAAA and maintained in F-12 Kaighn's media (Invitrogen, Carlsbad, CA, 21127) supplemented with 10 % FBS, 100 units/ml penicillin, 100 ug/ml streptomycin and 250 ug/ml geneticin at 37C, 5% CO2 in a humidified atmosphere. Before the assay, aliquots of cells were frozen and stored at -135C. The assay was performed in 1536-well format. Data are reported for both the ratio of the two emission wavelengths, and also for the component 'donor' channel, Em2=620. Data were normalized to the controls for basal activity (DMSO only) and 100% inhibition (No NPS control). IC50 values were determined from concentration-response data modeled with the standard Hill equation. NPS 1536-well assay protocol: (1) Fresh or frozen CHO-NPSR cells were suspended in F-12 Kaighn's media supplemented with 10 % FBS, 100 units/ml penicillin and 100 ug/ml streptomycin. Cells were plated at 4 ul/well (1200 cells) to white, tissue culture treated 1536-well plates, and then cultured at 37C, 5 % CO2 for 16 to 30 hours. (2) Add 23 nl/well of compound in DMSO solution. The final titration for each compound was between 0.6 nM and 46 uM. (3) Add 1 ul of stimulation reagent (1X HBSS buffer, 5 mM HEPES, 0.1% BSA, 500 uM RO-201724 (Sigma-Aldrich, B8279), 1.5% Alexa 647-labeled anti-cAMP antibody (from Perkin Elmer), 100 nM NPS) (4) Incubation at 37C, 5 % CO2 for 60 min. (5) Add 1 ul/well detection reagent. Detection reagent was prepared by adding biotin labeled cAMP (4%), streptavidin labeled with Europium-W8044 chelate (1.33%) and TritonX-100 (1%) to detection buffer. […]
Potency is the fitted concentration of half-maximal effect; tags give direction and shape of the fitted curve.

Sequence of UniProt Q6W5P4 (Q6W5P4 whole entry, looked up): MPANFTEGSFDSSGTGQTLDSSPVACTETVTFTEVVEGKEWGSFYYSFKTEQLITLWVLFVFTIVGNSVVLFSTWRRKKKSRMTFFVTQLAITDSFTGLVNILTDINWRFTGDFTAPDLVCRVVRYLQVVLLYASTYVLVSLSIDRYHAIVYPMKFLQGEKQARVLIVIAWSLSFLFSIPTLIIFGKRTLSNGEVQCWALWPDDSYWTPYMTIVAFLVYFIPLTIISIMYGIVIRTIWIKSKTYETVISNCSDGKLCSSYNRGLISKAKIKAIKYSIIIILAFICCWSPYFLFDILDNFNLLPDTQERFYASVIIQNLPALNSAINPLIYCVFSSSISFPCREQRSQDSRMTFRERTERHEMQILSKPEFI

| Compound | Potency |
| --- | --- |
| C[n+]1cccc2cccc([O-])c21 | inactive |
| COc1cccc(CNC(=O)c2ccc(S(=O)(=O)N3CCCC3)cc2)c1 | inactive |
| N#CC1=C(N)OC2=C(C(=O)CC(c3ccccc3)C2)C1c1ccc2c(c1)OCO2 (configuration not stated) | inactive |
| CCc1nnc(NS(=O)(=O)c2ccc(NC(=S)NC(=O)c3ccc(OC)c(OC)c3)cc2)s1 | inactive |
| O=[N+]([O-])c1ccc(Oc2ccc(Oc3ccc(C(F)(F)F)cn3)cc2)nc1 | inconclusive [activator, partial curve] |
| CCOc1ccc(NC(=O)Nc2ccccc2SC)cc1 | inactive |
| COc1cccc(/C(O)=C2/C(=O)C(=O)N(c3ccccn3)C2c2ccc(OC)c(OC)c2)c1 (configuration not stated) | inconclusive [inhibitor, single point] |
| CCN(CC)CCN(C(=O)c1ccc(S(=O)(=O)N2CCCCC2)cc1)c1nc2cc3c(cc2s1)OCO3 | active: 10 µM |
| CSc1ccc(C(=O)c2[nH]c(=O)[nH]c2C)cc1 | inconclusive [activator, single point] |
| O=C(Nc1ccc(N2CCCC2)c(Cl)c1)c1ccc([N+](=O)[O-])o1 | active: 7.94 µM |
| Cc1ccc(-c2nnc(CSc3nnc(COc4ccccc4)n3-c3ccccc3)o2)cc1 | inconclusive [inhibitor, single point] |
| Cn1c(C(=O)N2CCCC(C(=O)NCc3cccs3)C2)cc2sccc21 (configuration not stated) | inactive |
| Cc1cc(-c2nn3c(-c4ccccc4)nnc3s2)c2ccccc2n1 | inactive |
| Cc1cc(C)n2cc(CSc3ccccn3)nc2n1 | inactive |
| CCOC(=O)C1=C(CN2CCC(C)CC2)NC(=O)NC1c1ccc(Cl)cc1 (configuration not stated) | inconclusive [activator, single point] |
| CCOc1ccc2cc(C#N)c(SCC(=O)NC(C)CC)nc2c1 (configuration not stated) | active: 6.31 µM |
| C/C(=N\N=C1\NC(=O)CC(C(=O)O)S1)c1cccs1 (configuration not stated) | inactive |
| Cc1ccc(OCCn2c(NC(=O)c3ccco3)nc3ccccc32)cc1 | inactive |
| COc1ccccc1N1CCN(Cc2ccc(Br)o2)CC1 | inactive |
| CCOC(=O)c1c(-c2ccc(C)o2)csc1NC(=O)COC(=O)c1ccc(NC(N)=O)cc1 | inconclusive [inhibitor, partial curve, poor fit] |
| CCCc1ccc(-c2cc(NC(=O)CSc3n[nH]c(N)n3)n(-c3ccccc3)n2)cc1 | inconclusive [inhibitor, single point] |
| O=C(c1ccccc1)N1CCOC12CCN(c1ncc(C(F)(F)F)cc1Cl)CC2 | inconclusive [inhibitor, single point] |
